Experimental data taken from the supplement of paper PMC11417369.
± gives the standard deviation of the averaged measurements. This is one part of the list.

Test system: PfAP2-I AP2 domain 3 (GST-tagged)
Assay: gcPBM binding intensity (ln(normalized median fluorescence intensity)); higher = stronger DNA binding
How it was run: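 Each value is the highest Masliner-normalised natural-log median intensity across replicate spots of either orientation of a probe. The probes were primer-extended double-stranded 36-bp intergenic genomic sequences on an Agilent 4 × 180k array, alongside negative controls, exposed for 1 h to GST-tagged P. falciparum DNA-binding domains expressed in E. coli. Bound protein was picked up with Alexa488 anti-GST antibody and scanned at 488 nm.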

| Sequence | gcPBM binding intensity (ln) |
| --- | --- |
| CTATTTAAAATATGAACACACATTATTTGTTTTAGA [CACACA_site2713] | 7.42 ± 0.43 |
| AATATAGGAATATGCACACATATATACCTACATACA [CACACA_site4939] | 9.03 ± 0.028 |
| AAAAAAAAAAATACTAGTACGTAAAATTATATAAAT [XGTACX_site3019] | 7.74 ± 0.67 |
| ATATCATTATATAGTTGTACATATTTATTTATTTAT [XGTACX_site8995] | 7.88 ± 0.31 |
| GATATGTGTATAATATGTACATATATATATATATAT [XGTACX_site6531] | 9.46 ± 0.49 |
| ATTTCCCATACACGTTGTACAATGTAGAGAAAGTAT [XGTACX_site4586] | 7.9 ± 0.47 |
| AAAGAAAGAAAACACACACACATATATATATATCAA [CACACA_site3743] | 7.75 ± 0.45 |
| TTTTTGTCTGCATACGCACACACGTGGACCATCTTA [CACACA_site8303] | 8.81 ± 0.71 |
| TATATATATATATGTACACACACACCGATAAATAAA [CACACA_site8041] | 9.52 ± 0.13 |
| CTTTATTATAAGATTACACACATGTGTTCTAATTTA [CACACA_site7479] | 7.75 ± 0.53 |
| TATAAACAAAACAAAACATGCATAATACTATAAATT [TGCATGCA_site333] | 7.81 ± 0.85 |
| TAATTAACTTTATATGCATGTTAAAAATGTTATAAG [TGCATGCA_site761] | 7.71 ± 0.35 |
| TTTATTAAGAAACACACACACACACCCAAAATAAAA [CACACA_site242] | 8.4 ± 0.18 |
| AACAAAATAAAAAGTAATCTTATTTATTAAAATTTT [CACACA_negctrl_site419] | 7.25 ± 0.43 |
| TTTTGGTTAATTCCCCCCATTACATTATGTCATGTC [CACACA_negctrl_site229] | 9.77 ± 0.3 |
| TTTCATTTTTTTACATGTACGCAAAAGTGTGTAGTT [XGTACX_site6582] | 8.23 ± 0.3 |
| GTAAATATTCATATATGTACTTATGATATTTGCTAA [XGTACX_site6828] | 7.59 ± 0.3 |
| TAATACTTATATAAAGGTACACAATTTAACCGAATG [XGTACX_site7173] | 7.74 ± 0.59 |
| ACATATATATATATATATTGATTTATTTATTTCCCT [CACACA_negctrl_site659] | 7.96 ± 0.43 |
| ATATATATATATAAATGTACAAAAATATATATGTAA [XGTACX_site4531] | 9.35 ± 0.15 |
| CTTCCTTAGGAATGTACACACATATAAAATATGTTG [CACACA_site6355] | 7.83 ± 0.3 |
| AAGAAAGAGTTCTGTTGTACAAAATATTAATATGTA [XGTACX_site7213] | 7.79 ± 0.4 |
| AATACTCAAAAGAATCGTACAAACAACACTCCCACG [XGTACX_site7564] | 8.19 ± 0.15 |

| Sequence | gcPBM binding intensity (ln) |
| --- | --- |
| TTACATGTAAAAGGTACACACATTAGATATACAAAT [CACACA_site6651] | 7.95 ± 0.68 |
| TATCATACCTTTTAATGTACACACATTTCTTTTTTG [XGTACX_site1655] | 8.04 ± 0.64 |
| TGAAATAACCCATGTGCATGCACTTCAATAACTGAA [TGCATGCA_site1041] | 9.54 ± 0.47 |
| TATAAATTAAAATCAGTGCATATTTTGAAAAACCTC | 9.19 ± 0.41 |
| TATAAATTATAAATTGCACACATATTTTTATATTTA [CACACA_site8974] | 8.49 ± 0.057 |
| ATATTATTATTAGTTTCACACATTTAATGAAACTAA [CACACA_site5677] | 7.81 ± 0.41 |
| TGGAGGTCAGTTCACAGTACCCAGAAACTCTACGAG [XGTACX_site2007] | 7.29 ± 0.54 |
| TATATATATATATATTGTACATATTAATATTAGAAA [XGTACX_site8923] | 9.2 ± 0.27 |
| ATTACCATATAAAACACACAAACATACATACATACA [CACACA_site3729] | 8.81 ± 0.51 |
| TGTATGTTAAATACAACACACAAAAAAAAACAAGTT [CACACA_site4324] | 7.7 ± 0.71 |
| TACCACTTTCGAAGTAGTACATGGCTTTTTTTTTTT [XGTACX_site8379] | 7.86 ± 0.52 |
| GTTATAATTTAGTCAAGTACATGCGTATGTATATTC [XGTACX_site3763] | 7.83 ± 0.4 |
| TATACAGATAAATACACACACATATATATATATATA [CACACA_site4178] | 9.43 ± 0.45 |
| ATATATATATGTGTGTGTACATATGATTTCGCACTT [XGTACX_site4449] | 9.42 ± 0.13 |
| TAATATATATTATATACACACATATATATATATATA [CACACA_site428] | 9.4 ± 0.38 |
| CACAGAAATATTCTTATACACACTGTTCTTATATTC [CACACA_site288] | 7.63 ± 0.61 |
| TTTTACGTGAGTAATACACACATATAAGTTTATATA [CACACA_site4120] | 7.68 ± 0.58 |
| TATAACTTTTTTAATACACACAAATATTTATTTATA [CACACA_site7425] | 7.89 ± 0.24 |
| GGCATACACGAACACACACACACACGCACATATATA [CACACA_site6426] | 8.49 ± 0.4 |
| GTATAAAAATTTAGGAGTACAATATATTTATAATAT [XGTACX_site2127] | 8.055 ± 0.064 |
| TCTAATTTAAAATACACACACATATCTATAATATAT [CACACA_site7029] | 7.63 ± 0.28 |
| TTTTTGTATTCTCCGGACTACATTATGTTGTAAATG [CACACA_negctrl_site691] | 7.84 ± 0.78 |
| GTAATAAAAAATTAATGTACTTTATATAATATATTA [XGTACX_site5935] | 7.58 ± 0.28 |

| Sequence | gcPBM binding intensity (ln) |
| --- | --- |
| TTTTCTTTCTTGTTTCGTATATTATAAAAAAAAAAG [CACACA_negctrl_site854] | 7.87 ± 0.46 |
| GTATTTTGCATAAATGCATGTAAATATATACCTACC [TGCATGCA_site957] | 8.3 ± 0.92 |
| TATTTGGGTATTTTTACACACATTAAAATATATATA [CACACA_site5800] | 7.63 ± 0.67 |
| TATTTGTAAAGACATGCATGGTACTTTTAAAACATA [TGCATGCA_site7] | 7.79 ± 0.49 |
| TGTAGATAAAATAAACGTACGTATTGATTTTTTTCA [XGTACX_site1610] | 7.42 ± 0.47 |
| CAGTTGTTAATTTGTGTGCACCAAATATTATACATA | 11 ± 0.33 |
| ACATATGAATATAATACACACTTGTATTCTTAATAT [CACACA_site5085] | 7.78 ± 0.5 |
| ATAATTCCATAAAATAGACACACGAATGTATAATAT [CACACA_site477] | 7.71 ± 0.67 |
| TTAATATTTGTTCTGATCCTTTTATTCAACTTTTTT [CACACA_negctrl_site536] | 7.62 ± 0.81 |
| TGGTAATACCCATACACACACACATACACATATATA [CACACA_site8877] | 7.93 ± 0.37 |
| AATGACATTCTTACACGTACAAAATAAAAAATAAAA [XGTACX_site6932] | 7.89 ± 0.59 |
| ATTTATTTTATAATATATAAATGATATATCTTATTA [CACACA_negctrl_site66] | 7.31 ± 0.45 |
| TATATATTATATTCATGTACGTAAAAATTTTGAATA [XGTACX_site6734] | 7.985 ± 0.064 |
| CCATATGATATATATTGTACATTATATATTATTTCT [XGTACX_site1697] | 7.58 ± 0.47 |
| TATGTTGTTTATTTAGTGCATATTTAAATATTATAA [GTGCAC_site9601] | 10.16 ± 0.078 |
| GGACTTTATAAAAATGGTACACGCAATTCTATAATC [XGTACX_site6515] | 7.73 ± 0.69 |
| TAATATATAAAAAGATGTACTTTTGCAAGTTCCTTT [XGTACX_site8519] | 7.54 ± 0.67 |
| ATATATATATATGTATGTACGTATGTATGTATGAAT [XGTACX_site4857] | 9.26 ± 0.42 |
| GGTACATACAAACACACACACAAAAAAAAAAAAATA [CACACA_site1577] | 7.86 ± 0.18 |
| TGTACAGTAAATACAACACACATTTGTATAAATATA [CACACA_site4705] | 7.79 ± 0.48 |
| TATTGTATAAAAATAACATGCAATCCTTATACTGCT [TGCATGCA_site345] | 7.42 ± 0.73 |
| GTGTATTTTGTGCGCACACACATGCAAAAAGAAATA [CACACA_site6660] | 10.7 ± 0.34 |
| GGTAGGTGAATATATACACACATATATTATATATAT [CACACA_site1984] | 8.36 ± 0.52 |

| Sequence | gcPBM binding intensity (ln) |
| --- | --- |
| TACACATGTTTAAAATGTACGTTTTATAACACACAC [XGTACX_site8229] | 8.86 ± 0.2 |
| AAAAAAAATTAAGCATGTATAAATATATATATATAT [CACACA_negctrl_site1540] | 9.26 ± 0.32 |
| TTTTACAAGTATTGATAAATAAGAAATATATAAAAT [CACACA_negctrl_site529] | 7.58 ± 0.59 |
| AGAGGAAAAATAAAAGGAAAAAAGAAAATAATATTG [CACACA_negctrl_site852] | 7.45 ± 0.73 |
| ATATATTACAATATATGTACTTAATTTGCTTAAATA [XGTACX_site7912] | 7.49 ± 0.41 |
| ATAATATTTTAGAGCAGTACACTTTTATATTTATTG [XGTACX_site5728] | 8.14 ± 0.61 |
| TAAAACAGAATGAGGAGTACAAAAAGAAGAAAAGGG [XGTACX_site1246] | 8.35 ± 0.52 |
| AAAATAAATATTACATGTACATATATATATATATAT [XGTACX_site8492] | 9.28 ± 0.37 |
| ATCATTTTTAATAAATGTACAAGTTTTAAAAAAAAA [XGTACX_site7340] | 7.7 ± 0.6 |
| AAAAAAACAACATGCACACGCACACCCAAAAAAAGC [CACACA_site72] | 8.7 ± 0.59 |
| GTAATCCACAAACACACACACATACACATATATATA [CACACA_site2728] | 8.36 ± 0.63 |
| TTATGCATAAAAGGTGGTACTCCGTATATACATTCT [XGTACX_site4354] | 7.92 ± 0.66 |
| AACTATAAAAGTTTTACACACTGTTTTTAAATAATG [CACACA_site7686] | 7.76 ± 0.81 |
| TATTTATTTATAAATGCATGTCGCTCTTTTTATTAC [TGCATGCA_site626] | 7.66 ± 0.68 |
| ATATATATATATATGTGTACATATAAGATAGAAGAA [XGTACX_site3198] | 9.46 ± 0.36 |
| ATTATTATAGATATAACACACATAATTACATACTTA [CACACA_site6837] | 7.97 ± 0.14 |
| TCCATAAATAATTGTAGTACACATACTATGTGACAT [XGTACX_site7268] | 8 ± 0.24 |
| AAAAGTAAAAAAAGCACACACGAAAAAAAATAAAAA [CACACA_site5264] | 8.13 ± 0.52 |
| TATTAAAAAAAAAAATAAAAAAATAAAATAAAATAA [CACACA_negctrl_site580] | 7.44 ± 0.69 |
| TATATTTACTCTAAGTGTACATATTATTTTATAATA [XGTACX_site2046] | 7.61 ± 0.22 |
